Substitutions are numbered along the chain they refer to.
T1: Human ENTPD1 (NP_001767) expressing NIH/3T3 cells (Homo sapiens, UniProt P49961)
T1 construct: expressed in transfected cells; host or cells: NIH/3T3 (retroviral transduction, FACS-sorted)
T1 sequence (P49961 1-510): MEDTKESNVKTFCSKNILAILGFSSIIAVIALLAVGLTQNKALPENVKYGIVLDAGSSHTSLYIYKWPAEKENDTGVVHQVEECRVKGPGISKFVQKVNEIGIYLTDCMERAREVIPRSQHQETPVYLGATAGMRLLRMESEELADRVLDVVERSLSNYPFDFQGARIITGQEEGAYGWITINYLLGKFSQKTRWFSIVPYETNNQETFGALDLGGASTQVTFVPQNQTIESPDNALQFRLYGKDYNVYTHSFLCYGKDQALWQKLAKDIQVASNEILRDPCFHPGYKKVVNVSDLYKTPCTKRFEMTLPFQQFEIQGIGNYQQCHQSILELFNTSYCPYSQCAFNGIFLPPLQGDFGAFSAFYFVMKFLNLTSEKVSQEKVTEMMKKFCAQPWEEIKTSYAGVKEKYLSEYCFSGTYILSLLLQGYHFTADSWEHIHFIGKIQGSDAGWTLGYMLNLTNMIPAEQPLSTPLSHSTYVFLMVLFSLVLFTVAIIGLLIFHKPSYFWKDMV

B1: ANTI-HUMAN ENTPD2 MAB7 (antibody)
heavy: QVQLVQSGAEVVKPGASVKISCKASGYTFTDYNMDWVKQAPGQRLEWIGDINPKYDISTYNQQFKGKATITVDKSASTAYMELSSLRSEDTAVYYCARRGFFLYYGINYYYFDVWGQGTLVTVSSASTKGPSVFPLAPSSKSTSGGTAALGCLVKDYFPEPVTVSWNSGALTSGVHTFPAVLQSSGLYSLSSVVTVPSSSLGTQTYICNVNHKPSNTKVDKRV[left out - human IgG1 Fc]
light: EIVLTQSPATLSASPGEEITLSCSASSSVSYIHWYQQKPGQAPRLLIYSTSNLASGIPARFSGSGSGTFYTLTISSVEPEDAAVYYCHQWSSYPWTFGGGTKLEIKRTVAAPSVFIFPPSDEQLKSGTASVVCLLNNFYPREAKVQWKVDNALQSGNSQESVTEQDSKDSTYSLSSTLTLSKADYEKHKVYACEVTHQGLSSPVTKSFNRGEC
B2: ANTI-HUMAN ENTPD2 MAB9 (antibody)
heavy: QVQLVQSGAEVKKPGSSVKVSCKASGGTFDSYAVSWVRQAPGQGLEWMGRIVPWLGHTQYAQKFQGRVTITADESTSTAYMELSSLRSEDTAVYYCARESPGYRYSFDVWDQGTLVTVSSASTKGPSVFPLAPSSKSTSGGTAALGCLVKDYFPEPVTVSWNSGALTSGVHTFPAVLQSSGLYSLSSVVTVPSSSLGTQTYICNVNHKPSNTKVDKRV[left out - human IgG1 Fc]
light: SYELTQPLSVSVALGQTARITCSGDAIGEKYVYWYQQKPGQAPVLVIYDDNNRPSGIPERFSGSNSGNTATLTISRAQAGDEADYYCASYDLQQARWVFGGGTKLTVLGQPKAAPSVTLFPPSSEELQANKATLVCLISDFYPGAVTVAWKADSSPVKAGVETTTPSKQSNNKYAASSYLSLTPEQWKSHRSYSCQVTHEGSTVEKTVAPTECS
B3: ANTI-HUMAN ENTPD2 MAB10 (antibody)
heavy: B2 heavy with H57F, Q59R
light: B2 light
B4: ANTI-HUMAN ENTPD2 MAB8 (antibody)
heavy: QVQLQQSGPGLVKPSQTLSLTCAISGDSVSSSSAAWNWIRQSPSRGLEWLGRIYYRSKWYNDYAVSVKSRITINPDTSKNQFSLQLNSVTPEDTAVYYCARGSYVTSSYEGFDYWGQGTLVTVSSASTKGPSVFPLAPSSKSTSGGTAALGCLVKDYFPEPVTVSWNSGALTSGVHTFPAVLQSSGLYSLSSVVTVPSSSLGTQTYICNVNHKPSNTKVDKRV[left out - human IgG1 Fc]
light: SYELTQPLSVSVALGQTARITCSGDNLPEKYAYWYQQKPGQAPVLVIYDDNKRPSGIPERFSGSNSGNTATLTISRAQAGDEADYYCQSYGKWGWTWVFGGGTKLTVLGQPKAAPSVTLFPPSSEELQANKATLVCLISDFYPGAVTVAWKADSSPVKAGVETTTPSKQSNNKYAASSYLSLTPEQWKSHRSYSCQVTHEGSTVEKTVAPTECS

tested on: H520 cells; experiment: Cross reactivity: FACS binding to H520 cells (ENTPD3 and ENTPD8 expression); set-up: species or system human; conditions: 50 nM antibody
Method: (§1) FACS screening: Specific binding of candidate antibodies to endogenously expressed ENTPD2 was assessed by flow cytometry. Cells were rinsed thoroughly with 1× PBS and treated with Accutase (Millipore #SCR005) to lift from growth plates and resuspended at approximately 1×10^5 cells/90 μL in 1× FACS buffer (2% FBS +0.1% NaN3 in PBS). In a 96-well U-bottom plate, 10 μL of 10× antibody solution in FACS buffer was pre-seeded and 90 μL of cell suspension was added. Cell were incubated for 30 minutes at 4° C., washed 1× with cold PBS and resuspended in 100 μL of 1:500 secondary antibody 1× FACS buffer (Allophycocyanin conjugated F(ab′)2 goat anti-human IgG, Fcγ specific; Jackson Immunoresearch, Cat# 109-136-098). After additional incubation for 15 min at 4° C., cells were washed twice with PBS and resuspended in 100 μL of 1× FACS buffer with 4 μg/mL propidium iodide (Life Technologies, Cat# P3566). Geometric mean fluorescence intensity was calculated on live single cells using FlowJo software.
H520 cells were identified as a cancer cell line with ENTPD3 (Ct 25) and ENTPD8 (Ct 26) expression by Taqman and were used for selectivity screening.

| Molecule | Apparent FACS binding at 50 nM, H520 Cells |
| --- | --- |
| B1 | No binding |
| B2 | No binding |
| B3 | No binding |
| B4 | No binding |

tested on: NIH/3T3 cells; experiment: Cross reactivity: FACS binding to parental NIH/3T3 control cells; conditions: 50 nM antibody
Method: as §1
(§2) Cross reactivity Human ENTPD1 (NP_001767) expressing NIH/3T3 cells were generated using a retroviral transduction approach. 72hrs post transduction, engineered cells were stained with the anti-Human CD39/ENTPD1 APC-conjugated Antibody (R&D systems, Minneapolis, Minn.) and live cells that expressed human ENTPD1 were separated from the rest of the population via fluorescence activated cell sorting. Stable expression of ENTPD1 was periodically re-confirmed by FACS with the above described anti-Human CD39/ENTPD1 APC-conjugated Antibody (1:100).

| Molecule | Apparent FACS binding at 50 nM, NIH/3T3 cells |
| --- | --- |
| B1 | No binding |
| B2 | No binding |
| B3 | No binding |
| B4 | No binding |

biological target: T1, Human ENTPD1 (NP_001767) expressing NIH/3T3 cells; experiment: Cross reactivity: FACS binding to human ENTPD1 expressing NIH/3T3 cells; conditions: 50 nM antibody
Method: as §1, §2

| Apparent FACS binding at 50 nM, NIH/3T3 - ENTPD1 | Molecule |
| --- | --- |
| No binding | B1 |
| No binding | B2 |
| No binding | B3 |

same assay, conditions: read-out: Apparent FACS binding, NIH/3T3 - ENTPD1 (value printed in nM)

| EC50 [nM] | Molecule |
| --- | --- |
| > 100 | B4 |
